# Results reported in PubChem BioAssay (Tox21).
# The shares of active, inactive and inconclusive entries below differ from those in the screen. Where the call is inconclusive, the potency comes from a doubtful curve fit. Active and inactive are the calls of the source. The call rests on the fitted dose curve; in most records, active means well fitted curve in the direction sought with a large enough effect in the repeat runs; inconclusive means weak or mixed curves; inactive means no such curve, though single readings can be large; an effect the other way counts as inactive or inconclusive.
# Test: qHTS assay to identify small molecule antagonists of the androgen receptor (AR) signaling pathway - cell viability counter screen (AID 743033; further: nearly all actives have a fitted effect of over 45% in size)
# Details: AR-bla HEK293 viability, CellTiter-Glo luminescence, 16 h; activity change, negative = cytotoxicity: at 58.5 µM (top of the series)
# On the % scale 0 is the no-effect control and ±100 the full control effect; potency means the concentration at half of the fitted maximal effect; tags describe the fitted curve by direction and shape.
Structure (SMILES),Potency,"activity change, negative = cytotoxicity"
O=c1[nH]cnc2c1ncn2[C@H]1CC[C@@H](CO)O1,"inconclusive: 19 µM [rising, partial curve, poor fit]",
CC1=Nc2ccc3ccccc3c2C1(C)C,"inconclusive: 54.9 µM [cytotoxic, single point]",
COc1cc(C(=O)N2CCCCCCC2)cc(OC)c1OC,,inactive: 1.52%
Oc1ccc2c(c1)-c1ccccc1C2,"inconclusive: 54.9 µM [cytotoxic, partial curve, poor fit]",
C=C(C)C(=O)OCCOCCOCCOCCOC(=O)C(=C)C,,inactive: -1.73%

# Test: qHTS assay to identify small molecule antagonists of the thyroid receptor (TR) signaling pathway - cell viability counter screen (AID 743064); further: nearly all actives have a fitted effect of over 50% in size
# Details: GH3.TRE-Luc viability, CellTiter-Fluor, 24 h; activity change, negative = cytotoxic: at 70.3 µM (top of the series) unless noted
# Summary of the method: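 Plate GH3.TRE-Luc cells; incubate 4 h at 37 °C; add compound, then T3 to 1 nM final; incubate 23.5 h; add CellTiter-Fluor; incubate 30 min at 37 °C, 5% CO2; read fluorescence.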
Structure (SMILES),Potency,"activity change, negative = cytotoxic"
O=C(O)c1ccccc1C(=O)O,inactive,
Nc1cc(Cl)c(N)c(Cl)c1,"inconclusive: 68 µM [cytotoxic, single point]",
O=c1[nH]cnc2c1ncn2[C@H]1CC[C@@H](CO)O1,"inconclusive: 5.31 µM [rising, partial curve, poor fit]",inconclusive: 31.4%
C=CCOC(=O)c1ccccc1C(=O)OCC=C,inactive,
